Results are given in words; binding and its absence hold for the method and conditions named. Binding seen in cells or lysates may run through a third protein. Some entries that bind do so weakly or less than the wild type. For part of these data: Where a sequence is shown, tags or fusion partners need not be part of it.

Protein sequences, listed by entry. Tags and fused reporters are not part of them.
UniProt P22026: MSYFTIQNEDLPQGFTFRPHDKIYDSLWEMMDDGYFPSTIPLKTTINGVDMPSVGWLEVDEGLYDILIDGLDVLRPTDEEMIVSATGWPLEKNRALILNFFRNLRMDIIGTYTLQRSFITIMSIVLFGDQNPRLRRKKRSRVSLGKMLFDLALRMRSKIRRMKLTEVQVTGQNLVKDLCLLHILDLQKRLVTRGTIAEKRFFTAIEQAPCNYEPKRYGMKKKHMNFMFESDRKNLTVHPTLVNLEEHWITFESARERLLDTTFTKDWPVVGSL
UniProt Q7Z434: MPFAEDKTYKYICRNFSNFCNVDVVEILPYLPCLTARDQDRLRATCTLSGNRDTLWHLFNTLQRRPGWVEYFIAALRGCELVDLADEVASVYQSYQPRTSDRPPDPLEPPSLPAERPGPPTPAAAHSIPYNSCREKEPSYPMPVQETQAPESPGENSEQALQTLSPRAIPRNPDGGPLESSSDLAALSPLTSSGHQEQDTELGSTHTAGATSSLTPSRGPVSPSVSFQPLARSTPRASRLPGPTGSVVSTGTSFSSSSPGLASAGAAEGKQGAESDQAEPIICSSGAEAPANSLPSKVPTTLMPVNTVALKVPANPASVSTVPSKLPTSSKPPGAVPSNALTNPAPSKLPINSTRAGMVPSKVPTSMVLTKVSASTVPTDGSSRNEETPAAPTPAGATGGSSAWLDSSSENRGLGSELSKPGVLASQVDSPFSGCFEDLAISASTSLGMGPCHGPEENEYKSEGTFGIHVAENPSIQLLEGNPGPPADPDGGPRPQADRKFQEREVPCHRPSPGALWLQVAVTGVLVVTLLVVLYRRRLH
UniProt A0A0B5AC19: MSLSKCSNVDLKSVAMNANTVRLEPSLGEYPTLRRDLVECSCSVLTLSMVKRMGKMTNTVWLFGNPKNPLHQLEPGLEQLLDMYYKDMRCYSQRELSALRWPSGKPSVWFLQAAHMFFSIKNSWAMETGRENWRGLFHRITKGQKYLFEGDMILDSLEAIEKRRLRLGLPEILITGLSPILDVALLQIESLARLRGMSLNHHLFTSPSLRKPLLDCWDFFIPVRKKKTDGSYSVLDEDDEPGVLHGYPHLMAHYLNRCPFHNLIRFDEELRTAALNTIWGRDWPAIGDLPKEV
UniProt P42224: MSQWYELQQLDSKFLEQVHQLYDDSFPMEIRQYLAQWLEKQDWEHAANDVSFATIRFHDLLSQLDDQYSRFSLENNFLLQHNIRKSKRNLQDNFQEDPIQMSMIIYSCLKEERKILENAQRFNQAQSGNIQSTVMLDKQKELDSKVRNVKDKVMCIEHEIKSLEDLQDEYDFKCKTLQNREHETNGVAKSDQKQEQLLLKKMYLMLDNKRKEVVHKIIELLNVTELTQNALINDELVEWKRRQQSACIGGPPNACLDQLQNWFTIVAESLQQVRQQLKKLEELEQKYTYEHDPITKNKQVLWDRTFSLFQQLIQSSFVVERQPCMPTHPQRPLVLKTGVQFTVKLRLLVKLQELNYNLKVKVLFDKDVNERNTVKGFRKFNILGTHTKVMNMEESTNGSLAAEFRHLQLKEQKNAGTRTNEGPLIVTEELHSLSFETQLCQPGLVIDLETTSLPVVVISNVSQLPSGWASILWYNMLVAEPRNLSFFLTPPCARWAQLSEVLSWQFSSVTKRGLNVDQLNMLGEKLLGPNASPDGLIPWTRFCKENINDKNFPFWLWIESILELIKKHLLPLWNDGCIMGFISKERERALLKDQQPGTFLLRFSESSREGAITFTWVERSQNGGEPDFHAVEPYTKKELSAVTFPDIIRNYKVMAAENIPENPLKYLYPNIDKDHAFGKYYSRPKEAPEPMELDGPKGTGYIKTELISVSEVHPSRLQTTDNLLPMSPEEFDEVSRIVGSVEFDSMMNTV
UniProt P52630: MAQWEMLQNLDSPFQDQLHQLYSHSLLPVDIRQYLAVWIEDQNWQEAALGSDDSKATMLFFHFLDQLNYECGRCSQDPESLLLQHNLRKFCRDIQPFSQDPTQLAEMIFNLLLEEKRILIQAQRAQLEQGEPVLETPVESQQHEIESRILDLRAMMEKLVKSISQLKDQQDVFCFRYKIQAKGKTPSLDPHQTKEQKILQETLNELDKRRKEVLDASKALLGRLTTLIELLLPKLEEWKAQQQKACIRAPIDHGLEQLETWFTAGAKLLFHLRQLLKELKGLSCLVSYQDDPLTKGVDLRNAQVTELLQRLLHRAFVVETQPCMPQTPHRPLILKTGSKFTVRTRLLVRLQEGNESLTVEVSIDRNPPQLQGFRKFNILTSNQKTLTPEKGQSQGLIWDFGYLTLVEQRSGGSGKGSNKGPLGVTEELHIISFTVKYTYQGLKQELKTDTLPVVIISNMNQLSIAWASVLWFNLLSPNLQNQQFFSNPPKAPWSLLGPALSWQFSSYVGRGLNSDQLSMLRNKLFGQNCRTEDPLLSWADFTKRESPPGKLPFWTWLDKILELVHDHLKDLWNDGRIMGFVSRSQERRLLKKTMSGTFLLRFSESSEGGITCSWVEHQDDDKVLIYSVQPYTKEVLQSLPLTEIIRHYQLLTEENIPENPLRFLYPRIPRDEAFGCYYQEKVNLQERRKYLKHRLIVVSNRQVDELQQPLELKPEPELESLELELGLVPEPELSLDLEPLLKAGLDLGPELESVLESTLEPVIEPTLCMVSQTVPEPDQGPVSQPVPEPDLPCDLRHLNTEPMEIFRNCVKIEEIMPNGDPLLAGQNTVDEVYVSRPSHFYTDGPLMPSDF
UniProt P40763: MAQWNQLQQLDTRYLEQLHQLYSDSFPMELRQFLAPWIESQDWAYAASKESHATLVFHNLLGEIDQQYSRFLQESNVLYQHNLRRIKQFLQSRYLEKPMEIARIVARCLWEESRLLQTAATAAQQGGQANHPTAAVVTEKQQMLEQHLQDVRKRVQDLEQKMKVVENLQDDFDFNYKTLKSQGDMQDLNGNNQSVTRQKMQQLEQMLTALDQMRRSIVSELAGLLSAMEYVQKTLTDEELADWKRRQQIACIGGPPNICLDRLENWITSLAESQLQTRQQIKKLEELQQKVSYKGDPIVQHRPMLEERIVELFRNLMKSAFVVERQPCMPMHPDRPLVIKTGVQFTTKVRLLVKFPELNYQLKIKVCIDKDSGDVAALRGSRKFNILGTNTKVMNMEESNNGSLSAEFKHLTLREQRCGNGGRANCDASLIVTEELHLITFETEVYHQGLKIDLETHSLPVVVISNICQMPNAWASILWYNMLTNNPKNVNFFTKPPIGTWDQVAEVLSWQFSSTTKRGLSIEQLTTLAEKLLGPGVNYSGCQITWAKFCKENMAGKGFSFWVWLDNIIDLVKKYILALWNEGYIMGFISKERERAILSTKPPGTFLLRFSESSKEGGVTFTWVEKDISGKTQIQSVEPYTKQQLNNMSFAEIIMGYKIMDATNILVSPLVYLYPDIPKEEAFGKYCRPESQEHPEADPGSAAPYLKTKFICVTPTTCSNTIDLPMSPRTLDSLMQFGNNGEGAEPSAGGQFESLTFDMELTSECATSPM

Assay [1] addresses UUKV NSs (native, untagged, from UUKV infection) (Uukuniemi virus (strain derived from prototype S-23)) (UniProt P22026). The assay is described as follows: co-IP; […]) for 8 h, […] (25 mM HEPES pH 7.5, 150 mM NaCl, 50 mM MgCl2, 1% Triton X-100); […].
The target in assay [2] is V5-tagged UUKV NSs (Uukuniemi virus nonstructural protein NSs, C-terminal V5 tag) (Uukuniemi virus) (UniProt P22026). Put plainly: co-IP.
In assay [3] the target is T1, FLAG-tagged IKKε (IκB kinase ε) (UniProt Q14164).
T1 sequence: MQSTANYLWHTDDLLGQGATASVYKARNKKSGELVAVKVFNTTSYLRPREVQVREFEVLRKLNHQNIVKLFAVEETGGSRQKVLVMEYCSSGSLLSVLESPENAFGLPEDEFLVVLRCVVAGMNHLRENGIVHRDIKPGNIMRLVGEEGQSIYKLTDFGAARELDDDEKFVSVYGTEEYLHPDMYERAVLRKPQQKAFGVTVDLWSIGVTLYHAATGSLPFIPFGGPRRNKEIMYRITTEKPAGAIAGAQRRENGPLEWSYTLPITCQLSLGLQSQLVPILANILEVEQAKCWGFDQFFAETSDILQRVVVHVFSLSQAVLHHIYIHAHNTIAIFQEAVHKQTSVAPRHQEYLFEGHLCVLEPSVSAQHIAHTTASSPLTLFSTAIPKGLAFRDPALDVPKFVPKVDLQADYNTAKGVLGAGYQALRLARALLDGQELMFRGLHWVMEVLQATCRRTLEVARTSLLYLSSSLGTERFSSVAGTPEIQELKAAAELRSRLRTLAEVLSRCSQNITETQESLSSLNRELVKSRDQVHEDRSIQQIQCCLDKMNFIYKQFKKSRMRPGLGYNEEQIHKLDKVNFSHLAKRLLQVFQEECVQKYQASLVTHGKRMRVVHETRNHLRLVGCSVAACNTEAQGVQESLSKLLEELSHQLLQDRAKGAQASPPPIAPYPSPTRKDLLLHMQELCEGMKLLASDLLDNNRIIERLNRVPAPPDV
Put plainly: co-IP.

The target of assay [4] is T2, FLAG-tagged TBK1 (TANK-binding kinase 1) (UniProt Q9UHD2).
T2 sequence: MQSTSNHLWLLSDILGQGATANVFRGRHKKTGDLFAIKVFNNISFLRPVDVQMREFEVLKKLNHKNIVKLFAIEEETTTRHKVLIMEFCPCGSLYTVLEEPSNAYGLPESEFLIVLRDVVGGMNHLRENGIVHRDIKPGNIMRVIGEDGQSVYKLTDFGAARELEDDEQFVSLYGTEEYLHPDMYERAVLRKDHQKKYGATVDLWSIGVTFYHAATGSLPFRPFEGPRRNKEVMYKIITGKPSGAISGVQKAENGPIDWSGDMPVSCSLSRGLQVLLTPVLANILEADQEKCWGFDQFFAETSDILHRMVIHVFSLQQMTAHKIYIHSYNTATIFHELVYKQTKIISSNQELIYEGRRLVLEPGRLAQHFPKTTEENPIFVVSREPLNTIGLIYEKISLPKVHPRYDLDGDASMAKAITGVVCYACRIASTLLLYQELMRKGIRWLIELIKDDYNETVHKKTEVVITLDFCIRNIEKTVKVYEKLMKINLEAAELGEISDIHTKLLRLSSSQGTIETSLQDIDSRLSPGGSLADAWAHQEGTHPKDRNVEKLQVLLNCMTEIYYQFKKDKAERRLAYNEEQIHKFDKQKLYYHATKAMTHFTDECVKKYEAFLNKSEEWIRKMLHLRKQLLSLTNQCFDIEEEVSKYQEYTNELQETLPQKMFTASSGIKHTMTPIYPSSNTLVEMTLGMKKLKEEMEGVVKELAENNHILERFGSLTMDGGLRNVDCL
Put plainly: co-IP.

For assay [5], the target named is FLAG-tagged MAVS (mitochondrial antiviral-signaling protein) (UniProt Q7Z434). Put plainly: co-IP.
The target of assay [6] is V5-tagged SFTSV NSs (severe fever with thrombocytopenia syndrome virus nonstructural protein NSs, C-terminal V5 tag) (severe fever with thrombocytopenia syndrome virus). Put plainly: co-IP.

In the case of “FLAG-tagged MAVS (mitochondrial antiviral-signaling protein) (from UniProt Q7Z434 1-540)”, the binding result was “binds weakly” in assay [1] and “binds” in assay [2].

For “V5-tagged SFTSV NSs (severe fever with thrombocytopenia syndrome virus nonstructural protein NSs, C-terminal V5 tag) (from UniProt A0A0B5AC19 1-293)”, the binding result in assay [3] is “no binding”; in assay [4], “binds”; in assay [5], “no binding”.

As for “V5-tagged UUKV NSs (Uukuniemi virus nonstructural protein NSs, C-terminal V5 tag) (from UniProt P22026 1-273)”, the binding result was “no binding” in assay [3], “no binding” in assay [4] and “binds” in assay [5].

As to “endogenous STAT1 (from UniProt P42224 1-750)”, the binding entry in assay [2] is recorded as “no binding”.

Consider “endogenous STAT2 (from UniProt P52630 1-851)”, for which the values for the binding result in assay [6] and in assay [2] were “binds” and “no binding”, respectively.

Take “endogenous STAT3 (from UniProt P40763 1-770)”: the binding entry in assay [2] is recorded as “no binding”.

Values taken from paper PMC5489658.
